Test results from PubChem BioAssay AID1346428 (National Center for Advancing Translational Sciences (NCATS), 2018).
The campaign covered roughly 48,000 compounds. About 1,200 (2.5%) were called active. About 2% were inconclusive and are not listed.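 How the source made its calls: active means activation of at least 60% and not above a set upper limit (about 1 call in 100 departs from these limits); inconclusive means activation of 40% to 60%, or above that upper limit; inactive means activation under 40%.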 Some of the results follow.

Target: Probable G-protein coupled receptor 32 (Homo sapiens) (UniProt O75388)
Assay: qHTS for Agonists of Human Resolvin D1 Receptor DRV1; further: 0% is about no effect
Conditions: CHO-K1 GPR32 beta-arrestin PathHunter luminescence, 90 min; at 76.9 µM; stronger effect = higher value; zero percent set by DMSO-only wells
Procedure, shortened: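 Readings come from a cell-based beta-arrestin complementation format: CHO-K1 GPR32 stable cells (2,500/well) treated 90 min with compounds, then beta-Gal substrate added for 1 h before chemiluminescence imaging.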

UniProt O75388, sequence (O75388 whole entry, looked up): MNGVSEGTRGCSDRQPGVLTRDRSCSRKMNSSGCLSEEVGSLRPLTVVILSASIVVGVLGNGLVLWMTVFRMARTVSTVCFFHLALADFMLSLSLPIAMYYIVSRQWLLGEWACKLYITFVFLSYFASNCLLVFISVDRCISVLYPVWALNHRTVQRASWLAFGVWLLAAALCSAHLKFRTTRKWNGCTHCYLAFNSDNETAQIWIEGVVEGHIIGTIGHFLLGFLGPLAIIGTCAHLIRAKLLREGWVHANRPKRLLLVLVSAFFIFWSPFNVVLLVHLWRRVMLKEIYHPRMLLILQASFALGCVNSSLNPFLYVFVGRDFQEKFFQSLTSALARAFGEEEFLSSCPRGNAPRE

SMILES | activation
Cc1ccc(NCc2cc3cc4c(cc3n(CC(=O)Nc3ccc(F)cc3F)c2=O)OCCO4)cc1 | inactive: -3.72%
COc1ccc(S(=O)(=O)Nc2cc(-c3cn4ccc(C)cc4n3)ccc2C)cc1OC | inactive: -5.23%
Cc1nnc2c3ccccc3nc(Nc3ccccc3C(=O)O)n12 | inactive: 9.32%
CCn1ccc2cc(S(=O)(=O)N3CCC(C(=O)NCC(C)c4ccccc4)CC3)ccc21 (configuration not stated) | inactive: 28.3%
Cc1ccc(NC(=O)CSc2nc3ccccc3nc2Cc2ccccc2)c(Cl)c1 | inactive: -1.25%
Cc1ccc(Cl)cc1NC(=O)c1nnn(Cc2ccccc2)c1N | inactive: 21.3%
Cc1ccc(-n2ncc(C(=O)NCc3ccccn3)c2C2CCN(C(=O)OC(C)(C)C)CC2)cc1C | inactive: -21.3%
COc1cccc(CNC(=O)C2CCN(Cc3cc4ccccc4n3Cc3ccccc3)CC2)c1OC | inactive: -6.09%
CCOC(=O)c1cccc(NC(=O)CSc2cc(=O)n(C)c3ccccc23)c1 | inactive: -6.19%
CCN(CC)CCNC(=O)c1ccc(-c2nc(CN3CCc4ccccc43)c(C)o2)cc1 | active: 97.3%
Cc1ccc(CN2c3ccccc3-c3nc(SCC(=O)NCCc4ccccc4)ncc3S2(=O)=O)cc1 | inactive: 0.0815%
CCOC(=O)c1ccc(Oc2nc(C)nc3c2oc2ccccc23)cc1 | inactive: -3.12%
Clc1ccc(CN2CCc3nc(N4CCN(c5ccccn5)CC4)ncc3C2)cc1 | inactive: 18.8%
O=C(CN1C(=O)C2(SCC(=O)N2c2cccc(F)c2)c2ccccc21)NCc1ccccc1Cl (configuration not stated) | inactive: -10.3%
Cc1nnsc1C(=O)Oc1ccc(C#N)cc1 | inactive: 19.4%
O=C(/C=C/c1ccccc1)Nc1nc2n(n1)C(c1ccc(Cl)cc1)C=C(c1ccccc1)N2 (configuration not stated) | inactive: -23.8%
CCOC(=O)c1cc(-c2ccccc2)n(CCCC(=O)Nc2cccc(C)c2)c1C | inactive: -31%
CCCOc1ccc(NC(=O)CC2C(=O)N(c3ccc(OC)cc3)C(=O)N2CCc2ccncc2)cc1 (configuration not stated) | inactive: -19.8%
CCc1nc2ccccc2n1CCCCOc1cccc(C)c1 | inactive: 18.2%
CC(C)CC(=O)NCC(c1ccc2c(c1)OCO2)N1CCN(c2ccc(F)cc2)CC1 (configuration not stated) | inactive: -26.9%
CC(C)(C)c1ccc(S(=O)(=O)c2cnc(SCC(=O)Nc3ccc4c(c3)OCCO4)[nH]c2=O)cc1 | inactive: -16.5%

SMILES | activation
Cc1ccc2oc(C(=O)Nc3ccc(S(=O)(=O)N4CCCCCC4)cc3)cc(=O)c2c1 | inactive: 8.69%
CCOC(=O)c1cc(C)n(CC2CCC(C(=O)Nc3ccc(OC)c(OC)c3)CC2)c1C (configuration not stated) | inactive: -4.39%
CCc1ccc(NC(=O)c2sc(-n3nc(C)c(Cc4ccc5c(c4)OCO5)c3C)nc2C)cc1 | inactive: -1.19%
Cc1cc(C)cc(NS(=O)(=O)c2c(C)nc3scc(C)n3c2=O)c1 | inactive: 0.198%
O=C(Oc1ccccc1F)c1nc(SCc2ccccc2F)ncc1Cl | inactive: 13.6%
CCOc1ccccc1NC(=O)Cn1c(=O)n(-c2ccc(C)c(C)c2)c(=O)c2oc3ccccc3c21 | inactive: -5.48%
CC(C)Cn1cnc2c(N)nc3ccccc3c21 | inactive: 16%
COc1ccccc1NC(=O)Cn1nc2c3cc(F)ccc3n(Cc3cccc(C)c3)cc-2c1=O | inactive: -6.85%
COc1ccc(Nc2ncc3c(n2)CCN(Cc2cccc(F)c2F)C3)c(OC)c1 | inactive: 5.67%
Cc1ccc2nc(-c3cccc(NC(=O)CSc4ccc(Cl)cc4)c3)oc2c1 | inactive: -24.5%
CCN1CCC(N(Cc2ccc3c(c2)OCO3)C(=O)Nc2cccc(C)c2C)CC1 | inactive: -6.8%
CC(=O)N1CCCc2cc(S(=O)(=O)NCc3ccccc3Cl)ccc21 | inactive: -3.56%
CCc1ccc(Nc2nc3c(S(=O)(=O)c4ccc(C)cc4)nnn3c3ccsc23)cc1 | inactive: -20.6%
CCN(Cc1ccccc1)C(=O)C1CCC(CNS(=O)(=O)c2ccc3c(c2)CCCC(=O)N3)CC1 (configuration not stated) | inactive: -17.7%
Cc1ccc(C)c(NC(=O)c2cc(S(=O)(=O)N3CCN(c4cccc(Cl)c4)CC3)ccc2F)c1 | inactive: -19.1%
Cc1ccc(NC(=O)Cn2c(=O)n(-c3ccccc3)c(=O)c3ccc(C(=O)NCc4ccc5c(c4)OCO5)cc32)cc1 | inactive: -0.921%
CCN(C(=O)Cn1cc(S(=O)(=O)N2CCN(c3ccccc3F)CC2)c2ccccc2c1=O)c1ccc(C)c(C)c1 | inactive: -1.83%
Oc1c(C(c2ccccc2Cl)N2CCC(O)CC2)sc2nc(-c3ccco3)nn12 (configuration not stated) | inactive: -8.22%
O=C(Nc1ccccc1C(F)(F)F)c1noc2c1CCCC2 | inactive: -1.13%
Cc1ccc(S(=O)(=O)c2nnn3c2nc(N2CCCC(C)C2)c2cc(Cl)ccc23)cc1C (configuration not stated) | inactive: -3.24%
COc1ccc(-c2cc(OC(=O)c3ccccc3Cl)c3c(C)oc(C)c3c(=O)c2)cc1OC | inactive: -7.62%

SMILES | activation
COc1cc(OC)c(NS(=O)(=O)c2c(C)nc3sc(C)cn3c2=O)cc1Cl | inactive: 14.7%
Cc1cc(C)c(NC(=O)CSc2nc3nccnc3c(=O)n2CCc2c[nH]c3ccccc23)c(C)c1 | inactive: -2.41%
CCc1nnc(SCc2cccc(Cl)c2)c2cc3sccc3n12 | inactive: -22.2%
Cc1cc(F)ccc1NC(=O)Cn1nc(N2CCN(c3ccccc3)CC2)ccc1=O | inactive: -3.74%
Cc1ccc(-c2noc(-c3cccnc3NCc3ccco3)n2)cc1 | inactive: -3.66%
COc1ccc(CNC(=O)CN2C(=O)COc3ccc(S(=O)(=O)N4CCCCC4)cc32)cc1 | inactive: -25.1%
O=C(Cn1cc(SCc2ccc(F)cc2)c2ccccc21)N1CCCCC1 | inactive: -16.5%
Cc1ccc(Cn2c(C)c3cnn(CC(=O)O)c(=O)c3c2C)cc1 | inactive: -12.9%
O=C(Nc1cccc(C(=O)OCc2cc(=O)n3c4c(sc3n2)CCCC4)c1)c1ccc(Cl)cc1 | inactive: -14.8%
COc1ccc(NC(=O)Cn2c(=O)n(CCCCCC(=O)NCc3ccc4c(c3)OCO4)c(=O)c3sccc32)cc1Cl | inactive: -18.9%
CCCSc1oc(-c2cccs2)nc1S(=O)(=O)c1ccc(C)cc1 | inactive: -20%
O=C(NCc1ccccc1)c1cnc2sc(N3CCCC3)nn2c1=O | inactive: -6.92%
COc1ccc(C)cc1NC(=O)c1sc2nc(-c3ccc(F)cc3)cn2c1C | inactive: -5.43%
CCN(CC)C(=O)c1sc2c(c1C)c(=O)n(Cc1ccccc1)c(=O)n2Cc1cc(C)ccc1C | inactive: -13.5%
CCOc1cc(S(=O)(=O)NCCc2c(C)[nH]c3ccc(C)cc23)ccc1F | inactive: 26.3%
COc1ccc2c(c1)c(CC(=O)Nc1cc(C)cc(C)c1)c(C)n2C(=O)c1ccc(Cl)cc1 | inactive: -15.9%
Cc1cc2c(cc1S(=O)(=O)C(C)CC(=O)NC1CCC(C)CC1)OCC(=O)N2 (configuration not stated) | inactive: -0.918%
O=C(CCCn1ncn2c(cc3occc32)c1=O)NCc1ccccc1F | inactive: -21.7%
Cc1cc(C)c2oc(C(=O)Nc3ccc(S(=O)(=O)Nc4ncccn4)cc3)cc(=O)c2c1 | inactive: 9.11%
CCc1ccc2c(c1)NC(c1ccc(F)cc1)=NC(c1ccncc1)=N2 | inactive: -25%
COc1ccccc1NC(=O)c1sc(-c2ccc(Cl)cc2)cc1N | inactive: -19.9%

SMILES | activation
O=C(Nc1ccccc1C(F)(F)F)c1cc2nc(-c3ccccc3)cc(-c3ccccc3)n2n1 | inactive: 0.396%
CCCS(=O)(=O)c1nc(S(=O)(=O)c2ccc(C)cc2)c(NCCCOC(C)C)s1 | inactive: -34%
COc1ccc2nc(SCC(O)c3cccc(Br)c3)[nH]c2c1 (configuration not stated) | inactive: -10.3%
COc1cccc2c1cc1c(=O)n(CC(=O)N3CCN(c4ccc(F)cc4)CC3)nc(C)n12 | inactive: -7.92%
O=C(Cn1nc(N2CCN(c3ccccc3)CC2)ccc1=O)NCc1ccccc1F | inactive: 9.91%
COc1ccc(-c2cn3c(n2)sc2cc(C(=O)NCCCc4ccccc4)ccc23)cc1 | inactive: 21.7%
CCN(CC)C(=O)CSc1nc2cc3c(cc2c(=O)n1CCCC(=O)NCc1ccc2c(c1)OCO2)OCO3 | inactive: -18.8%
Cc1nn(-c2ccc(N3CCCCC3)nn2)c(C)c1CCC(=O)NCc1ccccc1 | inactive: -7.53%
Cc1ccc(Sc2ccc(N3CCCC(C(=O)Nc4ccc(F)cc4)C3)nn2)cc1 (configuration not stated) | inactive: 12.2%
Cc1ccc(-c2nnc(SCC(=O)NC(C)(C)C)nc2-c2ccc(C)cc2)cc1 | inactive: -19%
Cc1cccc(C(=O)Nc2ccccc2OCc2cc(=O)n3ccccc3n2)c1 | inactive: 0.444%
CCOc1ccc(NC(=O)c2cn(C3CCCCC3)c(=O)c3c2c2ccccc2n3C)cc1 | inactive: -1.21%
CCOc1ccc(C(=O)N(Cc2nc(-c3cccc(C)c3)no2)C(C)C)cc1 | inactive: -14%
Cn1c(=O)c2c(nc(NCCc3ccccc3)n2Cc2ccccc2Br)n(C)c1=O | inactive: -1.82%
COc1ccc(-c2nc(CN3CCC(C(=O)NCc4ccc(C)cc4)CC3)c(C)o2)cc1OC | inactive: 36.6%
CCOc1ccc(CNC(=O)CCCn2c(=O)c3cccn3c3ccccc32)cc1 | inactive: -13.2%
CC(=O)OCC(=O)[C@@]1(O)[C@H](OC(C)=O)C[C@H]2[C@@H]3CCC4=CC(=O)C=C[C@]4(C)[C@@]3(F)[C@@H](O)C[C@@]21C | inactive: 11.8%
COc1ccccc1CNc1ncnc2onc(-c3ccc(F)cc3)c12 | inactive: 9.04%
CCOc1ccccc1Nc1nc2ccccc2nc1NS(=O)(=O)c1ccc(Cl)cc1 | active: 67.1%
